Screen size: about 48,000 compounds; about 120 (0.25%) were called active. About 4% were inconclusive and are not listed. The call rests on the fitted dose curve; in most records, active means well fitted activation curve with a large enough effect; inconclusive means small, poorly fitted or top-dose-only effect, or another doubt; inactive means no such curve, though single readings can be large or run the other way. The list shows a part of the results.

A short description of this assay: Primary qHTS for Identification of Small Molecule Activators of Huntingtin-Antisense Promoter Activity. Further: nearly all actives have a fitted effect of over 55% in size. The settings on record: HEK293 HTT-AS promoter firefly luciferase reporter, 24 h; series mostly up to 57.5 µM; activity change, positive = activation: at the top concentration. An outline of the steps:
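HEK293 luciferase promoter-reporter cells (2,500/well) plated 24 h, then compounds added at up to 57.5 uM final for 24 h at 37 °C. Firefly luminescence by Dual-Glo, normalized to vehicle (0%) and zero RLU (-100%).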
Turning to `O=C(CSc1nc(-c2ccccc2)no1)N1CCCCC1`, the “activity change, positive = activation” value is inactive: -4.02%.

For `Cc1ccccc1-c1nn2c(=O)cc(CN3CCN(C(=O)c4ccc(C(C)(C)C)cc4)CC3)nc2s1`, the “activity change, positive = activation” value was inactive: -6.74%. Consider `Cc1ccc(Cn2nnc(C(=O)Nc3ccc(F)c(F)c3)c2N)cc1`, for which the activity change, positive = activation was inactive: -3.93% [at 11.5 µM, percent change from vehicle, -100% = no light].

For `COc1ccc(S(=O)(=O)N2CCC(n3c(C(F)(F)F)nc4cccnc43)CC2)cc1OC`, the activity change, positive = activation was inactive: -4.96% [at 11.5 µM, percent change from vehicle, -100% = no light]. In the case of `CCOc1ccccc1-n1cc2c(c1-c1ccc(OC)cc1)c(=O)n(C)c(=O)n2C` it was inactive: -12.7%; in that of `Cc1ccc(N(C)C(=O)C2CCN(S(=O)(=O)c3ccc4c(c3)CCCN4C(=O)C3CCC3)CC2)cc1`, inactive: 3.98%; in that of `O=C1CC(c2ccccc2)Cc2[nH]c(=O)c(C(=O)Nc3cccc(Cl)c3)cc21` (configuration not stated), inactive: -2.21%. Take `COC(=O)c1ccc(NC(=O)CN2CCN(c3ccc(Cl)cc3)CC2)cc1`: the “activity change, positive = activation” value was inactive: -18.1%. Regarding `COc1ccc(NC(=O)c2cn(-c3ccccc3)nc2-c2ccc(C)cc2)cc1`, the “activity change, positive = activation” value was inactive: 7.31%.

With `CCOc1ccc(NC(=O)CSc2nnc(NC(=O)Nc3ccccc3)s2)cc1`, the “activity change, positive = activation” value is inactive: 1.59%.

As for `CCOc1ccc(-c2nonc2NC(=O)COc2ccc(C)c(C)c2)cc1OCC`, the “activity change, positive = activation” value was inactive: -1.89%. With `COc1ccc(-c2nn(C)c3sc(C(=O)N4CCN(c5cc(Cl)ccc5C)CC4)cc23)cc1OC`, the “activity change, positive = activation” value is inactive: -43.6%. `O=C(c1ccc2c(c1)N(Cc1cccc(Cl)c1)C(=O)c1ccccc1S2(=O)=O)N1CCN(c2cccc(C(F)(F)F)c2)CC1`: the “activity change, positive = activation” value was inactive: -14.5%.

As for `CCOc1ccc(-c2cnc(NCc3cccc(Cl)c3)n2C)cc1`, the “activity change, positive = activation” value is inactive: -9.33%.

Take `COc1ccc(C(=O)CCC(=O)Nc2cccc(C(C)=O)c2)cc1`: the “activity change, positive = activation” value is inactive: -3.78%.

Turning to `COc1ccc(CCNC(=O)Cn2c(=O)c3cccn3c3ccc(F)cc32)cc1OC`, the “activity change, positive = activation” value was inactive: -7.79%. Regarding `Cc1ccc(Cn2c(=O)n(Cc3ccc(Cl)cc3)c(=O)c3cccnc32)cc1`, the “activity change, positive = activation” value was inactive: -13.2%. With `CCC(=O)N1CCc2cc(S(=O)(=O)CCC(=O)N3CCN(c4ccccc4F)CC3)ccc21`, the “activity change, positive = activation” value is inactive: -5.29%. In the case of `Cc1ccc(CNC(=O)c2cc3sccc3n2Cc2ccc(F)cc2)cc1` it was inactive: -19%; in that of `Cc1cc2oc(C(=O)Nc3nc(-c4ccccc4)ns3)c(C)c2cc1Cl`, inactive: 3.02%. On to `Cc1ccc(NC(=O)CN2C(=O)CCc3cc(S(=O)(=O)N4CCOCC4)ccc32)c(C)c1`, for which the “activity change, positive = activation” value is inactive: -5.53%. `CCOc1ccc(CNC(=O)c2sc3nc(C)cc(C)c3c2-n2cccc2)cc1`: the “activity change, positive = activation” value was inactive: 13%. For `CN1CCN(C(CNC(=O)C(=O)Nc2ccc(F)cc2)c2cccnc2)CC1` (configuration not stated), the “activity change, positive = activation” value was inactive: 30%.

`CCC(CC)C(=O)N1CCc2cc(OC)c(OC)cc2C1COc1ccccc1OC` (configuration not stated): the “activity change, positive = activation” value was inactive: -20.4%. Consider `Cc1ccc(C)c(Cn2nnc(C(=O)NCc3ccccc3)c2N)c1`, for which the “activity change, positive = activation” value is inactive: -14.7%. Turning to `CN1CCN(CCCN2c3ccccc3Sc3ccc(Cl)cc32)CC1`, the activity change, positive = activation result was “inactive”. Regarding `CCN(c1ccccc1)c1cc(NC)[n+](C)c(C)n1`, the “activity change, positive = activation” value is inactive: -7.55%. For the molecule `CCCOc1ccc(-c2cccc(NS(=O)(=O)c3cc(OC)ccc3OC)c2)nn1`, the “activity change, positive = activation” value is inactive: -21.5%. Next, `O=C(NCc1ccc(Cl)cc1)c1cnc2sc(N3CCCCCC3)nn2c1=O`: inactive: -0.786%; `CCN(CC)c1ccc(NC(=O)c2cnn3c(C(F)F)cc(-c4ccccc4)nc23)cc1`: inactive: -2.62%; `COc1ccc(Cl)cc1NC(=O)C1CCN(c2ncnc3c2nc2n3CCCCC2)CC1`: inactive: -10.3%. In the case of `O=C(CCC(=O)N1Cc2ccccc2Oc2ncccc21)NCc1ccccc1Cl` it was inactive: -15.3%; in that of `COc1ccc(C(c2c(O)cc(C)n(Cc3ccco3)c2=O)N2CCN(c3ccccc3)CC2)cc1` (configuration not stated), inactive: 9.11%. `Cc1ccccc1-n1nc(CO)c(C(=O)NCCc2ccccc2)n1`: the “activity change, positive = activation” value is inactive: -14.1%. Consider `COc1cccc(NC(=O)C(=O)NCC(c2cccnc2)N2CCN(c3ccccc3)CC2)c1` (configuration not stated), for which the “activity change, positive = activation” value was inactive: 7.73%. In the case of `CC1CCc2c(sc(NC(=O)c3ccccc3)c2C(=O)Nc2ccccc2)C1` (configuration not stated) it was inactive: -9.26%; in that of `COc1ccc(OC)c(CNc2ncnc3onc(-c4ccc(Cl)cc4)c23)c1`, inactive: -39.5%; in that of `CCOC(=O)CSc1nc2ccc(NC(=O)COc3ccccc3)cc2s1`, inactive: -5.81%. In the case of `Cc1cccc(CSc2cn(CC(=O)N3CCCCCC3)c3ccccc23)c1` it was inactive: 22.8%.

Take `CCOC(=O)c1cc(OC(=O)c2cccc(C)c2)n(-c2ccccc2)n1`: the “activity change, positive = activation” value is inactive: -18.4%. On to `COCc1cc(C)nc2sc3c(c12)NC(c1ccc(NC(C)=O)cc1)N(c1ccc(C)cc1)C3=O` (configuration not stated), for which the “activity change, positive = activation” value was inactive: 12.2%. As for `COc1cccc(CNc2ncnc3onc(-c4ccc(F)cc4)c23)c1`, the “activity change, positive = activation” value is inactive: -33.9%.

For the molecule `O=c1c2ccccc2n(Cc2cccc(Cl)c2)c(=O)n1CCc1ccccc1`, the “activity change, positive = activation” value is inactive: -21%. Take `C[C@]12CCC3=C4CCC(=O)C=C4CC[C@@H]3[C@H]1CC[C@@]2(O)CC#N`: the “activity change, positive = activation” value was inactive: -14.4%. With `COc1cccc2cc(-c3nc4sc(C(=O)Nc5ccc(F)cc5F)c(C)c4c(=O)[nH]3)c(=O)oc12`, the “activity change, positive = activation” value was inactive: -3.95%.

As for `O=C1c2ccccc2C(=O)c2c1ccc(O)c2O`, the “activity change, positive = activation” value was inactive: 5.18%. Take `COCc1cc(C)nc2sc3c(=O)n(-c4cc(C)ccc4C)nnc3c12`: the “activity change, positive = activation” value is inactive: -8.39%.

For the origin of these results see PubChem BioAssay AID1508624 (National Center for Advancing Translational Sciences (NCATS), 2021).
